Results taken from PubChem BioAssay AID1345082 (National Center for Advancing Translational Sciences (NCATS), 2018).
Hit rate of the full screen: of about 94,000 compounds, about 4,000 (4.3%) were called active. The shares of active, inactive and inconclusive entries below differ from those in the screen. Calls come from the whole dose curve; as a rule, active = well fitted inhibition curve with a large enough effect; inconclusive = small, poorly fitted or top-dose-only effect; inactive = no such curve, though single readings can be large or run the other way. Where the call is inconclusive, the potency comes from a doubtful curve fit.

Assay: Cytotoxic Profiling in NIH 3T3 Cell Line of Diverse Libraries Using Quantitative High-Throughput Screening; note: nearly all actives have a fitted effect of over 55% in size
Conditions: NIH 3T3 viability, CellTiter-Glo ATP luminescence, 48-72 h; series mostly up to 96.7 µM; activity change, negative = cytotoxicity: at the top concentration
How it was run: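 ATP-dependent luminescence (CellTiter-Glo) served as the viability signal for NIH 3T3 cells treated with compound for 48 or 72 hr at 37 °C.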
% is set by controls: 0 for no effect and ±100 for the full control effect; potency is the fitted concentration of half-maximal effect; tags give direction and shape of the fitted curve.

| Compound | Potency | activity change, negative = cytotoxicity | outcome |
| --- | --- | --- | --- |
| COc1cc(NC(=O)OC[C@H]2C[C@@H]3CCN2C[C@@H]3c2cc(-c3ccc(N(C)C)cc3)nc(C)n2)cc(OC)c1 | active: 7.94 µM | – | – |
| COc1cc2c(cc1OCc1ccncc1)NC(=O)C21CCN(Cc2ccccc2O)CC1 | inconclusive: 44.7 µM [inhibitor, partial curve, poor fit] | – | – |
| COC[C@H]1C[C@@H](NC2CCN(C)CC2)[C@H](O)[C@@H]1O | – | inactive: -13.9% [at 138 µM] | – |
| COCC(=O)NC[C@H]1C[C@@H]2CCN1C[C@@H]2c1cc(-c2ccccc2OC)nc(C)n1 | – | inactive: -25.6% [at 174 µM] | – |
| COc1cc2c(cc1OCc1ccccc1)N(C(=O)C(C)C)CC21CCN(C)CC1 | active: 89.1 µM | – | – |
| C#C[C@H]1CN2CC[C@H]1C[C@@H]2CNC(=O)c1ccc2ccccc2c1 | inconclusive: 112 µM [inhibitor, partial curve, poor fit] | – | – |
| O=C1NC2(CCN(Cc3cccnc3)C2)COc2ccccc21 (stereo unspecified) | active: 35.5 µM | – | – |
| CN(CCc1ccccn1)C[C@H]1CN2CC[C@H]1C[C@@H]2CNS(=O)(=O)c1ccccc1 | – | inactive: -27% [at 174 µM] | – |
| Cc1ccc(S(=O)(=O)NC[C@H]2C[C@@H]3CCN2C[C@@H]3CN2CCc3ccccc32)cc1 | active: 44.7 µM | – | – |
| CC(C)N1CC2CCC(C1)N2Cc1ccc(-c2cncnc2)cc1 | – | inactive: -14.7% [at 138 µM] | – |
| COC(=O)N1CCC2(C1)N=C(c1cccnc1)C(=O)N2 (stereo unspecified) | – | inactive: 4.68% [at 138 µM] | – |
| Cc1ccccc1C(=O)N1CCC2(CC1)c1nccn1-c1ccccc1CN2CC(C)C | inconclusive: 44.7 µM [inhibitor, partial curve, poor fit] | – | – |
| Cn1nc(-c2ccccc2)cc1[C@H]1CN2CC[C@H]1C[C@@H]2CNC(=O)Nc1ccccc1 | active: 50.1 µM | – | – |
| CCOC(=O)[C@H]1CN(C(=O)CCc2ccccc2)[C@]2(C)C(=O)N(CCOC)c3ccccc3[C@H]12 | – | inactive: -18.2% [at 46.1 µM] | – |
| C#C[C@H]1CN2CC[C@H]1C[C@@H]2CNC(=O)Nc1ccc(C(C)=O)cc1 | inconclusive: 100 µM [inhibitor, partial curve] | – | – |
| CCN(CC)C[C@H]1CN2CC[C@H]1C[C@@H]2CNS(=O)(=O)c1ccc(Cl)cc1 | active: 70.8 µM | – | – |
| CN(Cc1ccccc1)C[C@H]1CN2CC[C@H]1C[C@@H]2CNC(=O)c1ccc(N(C)C)cc1 | inconclusive: 100 µM [inhibitor, partial curve, poor fit] | – | – |
| CC[C@H]1CN2CC[C@H]1C[C@@H]2CNC(=S)Nc1ccc(C)cc1Br | active: 44.7 µM | – | – |
| CC(C)NC(=O)OC[C@H]1C[C@@H]2CCN1C[C@@H]2c1cc(-c2ccc3ccccc3c2)nn1C | active: 28.2 µM | – | – |
| COc1cc2c(cc1OCc1ccncc1)NC(=O)C21CCN(C(=O)c2cccnc2)CC1 | active: 35.5 µM | – | – |
| Cc1cccc(-c2ncc(CN3CCC4(CCCNC4)C3)cn2)c1 (stereo unspecified) | inconclusive: 79.4 µM [inhibitor, partial curve, poor fit] | – | – |

| Compound | Potency | activity change, negative = cytotoxicity | outcome |
| --- | --- | --- | --- |
| COc1ccccc1CNC(=O)[C@H]1CN2CCC1C[C@@H]2Cn1cc(CSc2ccccc2)nn1 (stereo partly specified) | inconclusive: 63.1 µM [inhibitor, partial curve, poor fit] | – | – |
| COCc1cc(N2CCN(C)C3(CCC(=O)N(C)CC3)C2)ncn1 (stereo unspecified) | – | inactive: -6.6% | – |
| CN(C)c1ccc(C(=O)NC[C@H]2C[C@@H]3CCN2C[C@@H]3CN(C)c2ccccc2)cc1 | inconclusive: 89.1 µM [inhibitor, partial curve] | – | – |
| CN(C)C(=O)C1CN(Cc2cccnc2)CC12CCOCC2 (stereo unspecified) | – | – | inactive |
| COc1cccc(C(=O)N2CCC3(CC2)NCc2ccccc2-n2ccnc23)c1 | inconclusive: 70.8 µM [inhibitor, partial curve, poor fit] | – | – |
| CN(C[C@H]1CN2CC[C@H]1C[C@@H]2CNC(=O)c1ccc(C(F)(F)F)cc1)c1ccccc1 | active: 44.7 µM | – | – |
| CCOC(=O)[C@H]1CN(C(=O)c2cccs2)[C@]2(C)C(=O)N(CC3CC3)c3ccccc3[C@H]12 | inconclusive: 31.6 µM [inhibitor, single point] | – | – |
| N#Cc1cccc(-c2ccc3n(c2=O)C[C@H]2C[C@@H]3CN(C(=O)Nc3ccccc3)C2)c1 | inconclusive: 100 µM [inhibitor, partial curve, poor fit] | – | – |
| COc1cc2c(cc1OCc1ccccc1)NC(=O)C21CCN(Cc2c(C)noc2C)CC1 | inconclusive: 22.4 µM [inhibitor, full curve, poor fit] | – | – |
| CCC1(N2CCN(C(=O)COc3cccc(Cl)c3)CC2)CCN(C(=O)NC)C1 (stereo unspecified) | – | inactive: -37.3% | – |
| NC(=O)CN1C(=O)CO[C@H]2CN(C3CCC3)C[C@H]21 | – | inactive: 2.38% [at 230 µM] | – |
| CCOC(=O)[C@H]1CN(C(=O)c2ccc(C)cc2)[C@]2(C)C(=O)N(CCOC)c3ccccc3[C@H]12 | inconclusive: 50.1 µM [inhibitor, partial curve, poor fit] | – | – |
| C#CCN(C)C[C@H]1CN2CC[C@H]1C[C@@H]2CNC(=O)Nc1ccsc1 | inconclusive: 89.1 µM [inhibitor, partial curve, poor fit] | – | – |
| CC(C)NC(=O)NC[C@H]1C[C@@H]2CCN1C[C@@H]2c1cc(-c2ccc3ccccc3c2)nn1C | active: 28.2 µM | – | – |
| CC(C)CN1C[C@@H]2OCC(=O)N(Cc3cccnc3)[C@@H]2C1 | inconclusive: 158 µM [inhibitor, single point] | – | – |
| Cc1ccc([C@H]2CN(C(=O)c3cc(C(C)C)on3)[C@@H]3C4CCN(CC4)[C@H]23)cc1 | inconclusive: 56.2 µM [inhibitor, partial curve, poor fit] | – | – |
| CCOC(=O)[C@H]1CN(C(=O)NCc2ccccc2)[C@]2(C)C(=O)N(CC(=O)N(C)C)c3ccccc3[C@H]12 | inconclusive: 35.5 µM [inhibitor, single point] | – | – |
| CCOCCCNC(=O)N1[C@H]2CC[C@@H]1c1cnc(-c3ccc(F)cc3)nc1C2 | inconclusive: 7.94 µM [inhibitor, full curve] | – | – |
| COc1cc2c(cc1Oc1cccc(N(C)C)c1)NC(=O)C21CCN(c2ncc(F)cn2)CC1 | inconclusive: 50.1 µM [inhibitor, partial curve, poor fit] | – | – |
| C#C[C@H]1CN2CC[C@H]1C[C@@H]2CNC(=O)Nc1cccc(C#N)c1 | – | inactive: -9.49% [at 174 µM] | – |
